# Source: the supplement of paper PMC3334620
# Whole data set: some 33,000 sequences, median “E-score (-0.5 to 0.5)” near -0.012, cut for the highest 2% near 0.29. The list shows a part of the results.
# Target: T1, Ybr033w (UniProt P38073)
# T1 sequence: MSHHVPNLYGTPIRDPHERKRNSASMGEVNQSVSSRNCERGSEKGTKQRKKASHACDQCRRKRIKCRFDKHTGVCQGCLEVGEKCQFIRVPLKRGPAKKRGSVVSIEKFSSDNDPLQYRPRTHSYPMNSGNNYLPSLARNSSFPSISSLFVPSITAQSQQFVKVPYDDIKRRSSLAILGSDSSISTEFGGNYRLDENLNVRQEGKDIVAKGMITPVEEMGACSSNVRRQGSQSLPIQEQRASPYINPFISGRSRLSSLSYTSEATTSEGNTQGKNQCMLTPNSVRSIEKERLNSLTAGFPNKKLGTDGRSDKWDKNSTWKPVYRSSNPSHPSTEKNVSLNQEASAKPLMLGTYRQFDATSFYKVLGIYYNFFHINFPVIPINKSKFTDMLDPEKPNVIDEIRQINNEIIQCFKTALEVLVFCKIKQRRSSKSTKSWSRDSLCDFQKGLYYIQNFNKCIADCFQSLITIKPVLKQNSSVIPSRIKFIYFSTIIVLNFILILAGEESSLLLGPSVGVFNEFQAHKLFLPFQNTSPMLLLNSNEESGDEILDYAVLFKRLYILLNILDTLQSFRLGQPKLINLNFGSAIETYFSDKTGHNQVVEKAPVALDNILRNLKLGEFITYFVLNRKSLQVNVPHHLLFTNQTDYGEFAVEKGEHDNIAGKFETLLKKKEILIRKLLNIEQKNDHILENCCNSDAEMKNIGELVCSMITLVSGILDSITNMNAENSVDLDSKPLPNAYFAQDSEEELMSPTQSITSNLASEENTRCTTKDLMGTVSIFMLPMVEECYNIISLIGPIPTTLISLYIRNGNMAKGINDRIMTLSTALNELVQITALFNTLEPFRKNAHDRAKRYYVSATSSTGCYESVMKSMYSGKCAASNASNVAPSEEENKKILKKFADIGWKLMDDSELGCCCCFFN
# Assay: PBM E-score (8-mer binding enrichment) (E-score (-0.5 to 0.5)); higher = stronger / more preferred TF binding; most listed sequences are background and not binding sites
# Conditions: protein concentration: 200 nM; construct: GST-full length
# Procedure: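 Universal 'all 10-mer' protein binding microarrays (Agilent AMADID 015681) probed with GST-tagged S. cerevisiae TFs (full-length or DBD) made by in vitro transcription/translation (PURExpress), about 100-200 nM. Bound TF was detected with fluorescent anti-GST. Each ungapped 8-mer (which stands for itself and its reverse complement) is scored by the PBM enrichment score (E-score), a modified Wilcoxon-Mann-Whitney statistic from -0.5 to +0.5, computed with the Universal PBM Analysis Suite. Scale: above 0.35 generally sequence-specific binding.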
row,Sequence,PBM E-score
1,CCATTCAG,0.182
2,CAGATGCC,-0.0707
3,CGCGGGCC,-0.152
4,GACGGGGA,-0.219
5,AGCGTACC,-0.183
6,GTATGCGA,0.0753
7,TCGCCTCA,-0.043
8,CCCGAATC,0.0264
9,GATGTTAA,0.137
10,CTCCGTTA,-0.118
11,AATCAATC,0.0849
12,ACAGATAA,0.221
13,AAGCGCAG,0.127
14,ACGTGTAA,0.197
15,AGGCGGGG,-0.213
16,CATTACCA,-0.00489
17,ATCCTCCC,-0.183
18,CAAGGACC,-0.151
19,ACACTGTA,0.0457
20,CCTTACTA,0.137
21,TCCCAGAA,-0.165
22,TCTCTCCA,-0.201
23,ATATTCGA,0.0581
24,ATTATTTA,0.373
25,GGCGCGAC,-0.0644

row,Sequence,PBM E-score
1,AGAAAGTA,0.201
2,AAATGCCA,0.049
3,CCGTGCAC,-0.0657
4,AAGGCACA,-0.0378
5,ACGTCAAG,-0.112
6,GGTCATAA,0.0991
7,GTGCTCAA,0.00503
8,CATCGAGG,-0.179
9,AGTGCCCC,-0.344
10,CCTCCCCC,-0.383
11,CGCCATTC,0.0807
12,ATCATGAT,0.12
13,ACGTGAAA,0.143
14,TAGGGTAA,0.103
15,ACCCACTA,0.0196
16,CCGTAGTC,-0.287
17,GAGGACGC,-0.24
18,GAGCTGGC,-0.204
19,GAATGAGC,0.0363
20,AAACGACC,-0.0824
21,AAACCTCA,0.194
22,ATTGTGGC,0.0651
23,ACACAGGA,-0.0183
24,GCATGAGC,-0.0968
25,CGTCCAGC,-0.129

row,Sequence,PBM E-score
1,AAAACAGC,0.0729
2,ACGGAGTC,0.0131
3,AGTATCCG,0.182
4,ATATCCGA,0.266
5,CACCCCCC,-0.382
6,CCCCGGTA,-0.261
7,TGTCGCAA,-0.0854
8,AACCCTAG,-0.0236
9,CACGGACC,-0.221
10,GTCCGATA,-0.104
11,CGCGGAGA,0.0986
12,CTGCTACA,-0.0445
13,AAATGACA,0.0222
14,ATTCCTGA,0.146
15,TCGACTAA,0.0469
16,CCGTGTCA,-0.161
17,CCCTGGGC,-0.324
18,AGGTACTA,0.149
19,CAAACTTC,0.206
20,TCGAGACA,0.0181
21,CCCCCCCC,-0.45
22,CCGGGGCC,-0.309
23,ACCTATCC,-0.00927
24,AATTAATG,0.273
25,CATGACTA,-0.0529

row,Sequence,PBM E-score
1,AAATTTTC,0.258
2,CCTGTTCA,-0.0729
3,CACTTAGC,-0.15
4,ACTTGTGG,-0.00733
5,CAAGGAGC,-0.0227
6,CCCACAAG,-0.0953
7,AAGGATCG,0.103
8,TACACGTA,0.0731
9,CCCTACAC,0.0236
10,CGTCATCA,-0.0526
11,AATGAGGT,0.156
12,CAACGCAC,-0.227
13,ATAATAGC,0.00134
14,CTAGTCTC,-0.178
15,GGAGGATA,-0.0323
16,ATCTCGAA,-0.0302
17,ATTTCTGG,0.176
18,CTGTGAGC,-0.0445
19,TGAGGGAA,-0.048
20,ATTTAAGG,0.0525
21,AATCATGG,0.119
22,AGCAGGCC,-0.0674
23,AATAGTCA,0.0746
24,CTACGCTA,-0.105
25,AACGTCTC,-0.0416

row,Sequence,PBM E-score
1,GCTCCAAA,-0.128
2,AACGAGCA,-0.136
3,ATCCTATG,-0.0468
4,ATCTCCGG,0.121
5,ATTAATAA,0.302
6,ATACTTCA,0.143
7,CAATAAGA,0.145
8,ATCCCCGA,-0.11
9,ACGGCTCT,-0.0486
10,ATCTTAAA,0.0947
11,CCTTGCTA,0.00278
12,GAGCCCCC,-0.415
13,CAAGCGGA,-0.131
14,CTGCGATC,-0.152
15,AGCTGAGC,-0.164
16,AAAGGCAT,0.115
17,AATCCTTG,0.138
18,GGAGGCGA,-0.159
19,CCTCATTA,0.205
20,ATTTGCTG,0.212
21,TCGCCAAA,-0.0465
22,AGTTCTCG,0.123
23,AATATCAC,0.239
24,CAGCGACC,-0.228
25,AAGTCAAC,0.18

row,Sequence,PBM E-score
1,CAGGTGGA,-0.147
2,TGTAACAA,0.0774
3,ATTCTCAG,0.0338
4,AACGCCCC,-0.161
5,ATCAGAAA,0.044
6,ACTTTCAT,0.0376
7,AATAGGGC,-0.106
8,CTTAACTA,0.0617
9,ATCTTAAG,0.0705
10,CTAGTGAG,-0.0318
11,CGTCTGAC,-0.0411
12,GCTCCACA,-0.25
13,GAAAAAGC,0.239
14,CAACTGAC,-0.115
15,ACGAAAAG,0.164
16,ATCACAAC,0.118
17,GTACATAC,0.0751
18,AGCGCCGA,-0.0522
19,AGAGCCTA,-0.0498
20,TCTGCAAA,0.0324
21,AACACGTT,-0.0899
22,GCAATAGA,0.00182
23,ATGCTATA,0.0582
24,AAGAAATA,0.27
25,CTCCTTTA,-0.0477

row,Sequence,PBM E-score
1,AAAGTAAA,0.166
2,ATTGCATC,0.183
3,AGAAAGTG,-0.0806
4,ATGAGTAA,0.167
5,CTTTTCCC,0.0333
6,ATACAATG,0.222
7,GGGGCACC,-0.396
8,AACATGGC,-0.0522
9,AATGGGAA,-0.0743
10,AAGAAGAT,0.205
11,CGGTGAAA,0.0862
12,CTCCCCGA,-0.221
13,AAACTTCA,0.293
14,ACATAAGT,0.172
15,GATTAAGC,0.104
16,CAAATCTG,0.053
17,AATTTAGC,0.239
18,ACGGCGAT,0.0661
19,AAAGTTCT,0.0699
20,ACGCGACG,-0.109
21,CACTACAA,0.214
22,AAAGACCG,-0.148
23,CCGACCTA,-0.0189
24,GAAACTGA,-0.185
25,GCACTCCC,-0.13

row,Sequence,PBM E-score
1,ATCGAGAT,-0.00279
2,TCGGTCAA,0.00935
3,CGTCGCTA,-0.0271
4,CGCCTTGA,-0.188
5,CGCAACTA,0.16
6,CCGTTCCA,-0.0333
7,TCTGACAA,0.191
8,AGCTATTA,0.0432
9,ATAATTCA,0.241
10,GAAGGCGC,-0.244
11,GAGCCTAA,0.0041
12,TGCCGTAA,-0.0769
13,CAAGAACC,0.137
14,CGTTAACG,-0.204
15,ACAGTTAG,0.118
16,AGAGTGTG,-0.0636
17,GACTCGTA,0.0838
18,ACACATAG,-0.0312
19,CAATCCAG,0.033
20,CTTTACGC,0.0935
21,CACTATGG,-0.124
22,CAAAGCGG,-0.0457
23,AGCGTCAT,-0.0481
24,ACCTAAAC,0.0549
25,CCCATACA,-0.206

row,Sequence,PBM E-score
1,ATGCCTGG,-0.193
2,ACTTGCAT,0.146
3,GCTACGTA,0.164
4,ACAGCGGG,-0.0581
5,ATTGCAGC,-0.142
6,CATAGGAC,-0.0275
7,CAGAACGA,0.0764
8,AGATCGCC,-0.165
9,ATCCTAGC,0.0772
10,AGAAACCA,0.1
11,GGGGAAAA,0.208
12,CGGCTGCA,-0.134
13,GTTCTACA,-0.0278
14,ATCGGTTA,0.187
15,GCCACCGC,-0.243
16,GAAGAAAA,0.238
17,CTTTATTC,0.192
18,CCCTGGCC,-0.236
19,CGACCTAA,0.216
